In publication PMC3458052, “Single Amino Acid Substitutions in the Chemotactic Sequence of Urokinase Receptor Modulate Cell Migration and Invasion” (PLoS ONE, 2012):

Target: T1, vitronectin (UniProt P04004 20-478, ^125I (radio-iodinated with Na^125I using IODO-BEADS) on the tracer; the competitor is unlabeled)
T1 construct: vitronectin (Vn), bought from Promega; also called Vn; ^125I-Vn; source: bought: Promega
T1 sequence (looked up): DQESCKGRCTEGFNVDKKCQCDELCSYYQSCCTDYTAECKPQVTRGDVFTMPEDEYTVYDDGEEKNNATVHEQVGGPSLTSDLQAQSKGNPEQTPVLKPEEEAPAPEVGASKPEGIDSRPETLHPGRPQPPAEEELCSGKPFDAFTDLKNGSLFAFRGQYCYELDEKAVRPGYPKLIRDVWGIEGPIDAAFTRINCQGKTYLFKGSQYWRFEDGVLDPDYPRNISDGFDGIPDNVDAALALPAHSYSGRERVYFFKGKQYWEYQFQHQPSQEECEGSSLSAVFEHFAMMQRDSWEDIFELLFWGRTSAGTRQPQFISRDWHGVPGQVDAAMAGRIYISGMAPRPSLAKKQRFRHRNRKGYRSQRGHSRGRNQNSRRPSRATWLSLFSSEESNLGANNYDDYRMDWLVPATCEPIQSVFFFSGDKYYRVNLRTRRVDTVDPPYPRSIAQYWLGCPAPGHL
Assay: radioligand binding; 10 nM ^125I-Vn with increasing unlabeled Vn on adherent transfected 293 clones (2×10^5 cells/well), 3 hours at 4°C, binding buffer DMEM, 1 mg/ml BSA, 10 mM Hepes pH 7.4; surface-bound label recovered by acid wash pH 3.0; apparent Kd; cells also carry endogenous αvβ5
Settings: one partner purified

Kd: ~0.01 µM
B1: receptor for urokinase-type plasminogen activator (uPAR), wild type (receptor)
chain: not shown
notes: human uPAR, whole uPAR cDNA in pcDNA3, membrane-associated (GPI-anchored) on 293 cells; also called uPAR^wt; source: on intact adherent cells and in RIPA lysate
